In article PMC12820563, “FoxP3 forms a head-to-head dimer in vivo and stabilizes its multimerization on adjacent microsatellites”:
The other results are listed elsewhere or left out.

The sequences below were run against T1, MBP-FoxP1dN (Mus musculus, UniProt P58462 326-579) (assay: PD-seq (MBP pull-down with sequencing); 20 mM Tris-HCl pH 7.5, 100 mM NaCl, 1.5 mM MgCl2, 0.4 uM protein, 0.1 uM dsDNA library, 30 min, room temperature, amylose pull-down; high values mean tight binding). Conditions: protein: recombinant; tags: His6-MBP; chain copies: 2; dsDNA, one strand shown.
T1 sequence: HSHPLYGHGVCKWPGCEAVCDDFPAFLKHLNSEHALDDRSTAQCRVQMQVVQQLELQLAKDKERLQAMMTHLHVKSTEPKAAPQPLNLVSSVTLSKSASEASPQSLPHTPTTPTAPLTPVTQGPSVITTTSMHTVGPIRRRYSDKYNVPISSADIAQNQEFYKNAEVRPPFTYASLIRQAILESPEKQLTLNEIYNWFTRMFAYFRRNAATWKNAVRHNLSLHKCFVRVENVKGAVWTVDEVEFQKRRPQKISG
Method in brief: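 E. coli-expressed mouse FoxP3 or FoxP1 fragment, N-terminus removed and tagged with His6-MBP, was used at 0.4 µM against 0.1 µM of a Klenow-filled degenerate double-stranded DNA library. After 30 min at room temperature in Tris pH 7.5 buffer with NaCl and MgCl2, complexes were pulled down on amylose resin and washed three times. Binding is pull-down over input reads-per-million enrichment from pooled replicates of the proteinase K-released, PCR-barcoded, Illumina-sequenced DNA.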

| Sequence | binding signal |
| --- | --- |
| GATGATTGTTCTCCCAGCTGATGAATTTATGCGGTCGAGTAAACAAATTTTCCTAATCTTTCTGTTCAAGCGCCATCTAC | 1.09 RPM ratio (pull-down/input) |
| GATGATTGTTCTCCCAGCTGATGAATTGCCAGGCTCGAGTAAACAAATTTTCCTAATCTTTCTGTTCAAGCGCCATCTAC | 0.814 RPM ratio (pull-down/input) |
| GATGATTGTTCTCCCAGCTGATGAATTATTTGGATCGAGTAAACAAATTTTCCTAATCTTTCTGTTCAAGCGCCATCTAC | 1.29 RPM ratio (pull-down/input) |
| GATGATTGTTCTCCCAGCTGATGAATTACACGAGTCGAGTAAACAAATTTTCCTAATCTTTCTGTTCAAGCGCCATCTAC | 1.08 RPM ratio (pull-down/input) |
| GATGATTGTTCTCCCAGCTGATGAATTTTGTATGTCGAGTAAACAAATTTTCCTAATCTTTCTGTTCAAGCGCCATCTAC | 1.54 RPM ratio (pull-down/input) |
| GATGATTGTTCTCCCAGCTGATGAATTCGAGTGGTCGAGTAAACAAATTTTCCTAATCTTTCTGTTCAAGCGCCATCTAC | 0.752 RPM ratio (pull-down/input) |
| GATGATTGTTCTCCCAGCTGATGAATTCCGGCACTCGAGTAAACAAATTTTCCTAATCTTTCTGTTCAAGCGCCATCTAC | 0.819 RPM ratio (pull-down/input) |
| GATGATTGTTCTCCCAGCTGATGAATTATTGTGATCGAGTAAACAAATTTTCCTAATCTTTCTGTTCAAGCGCCATCTAC | 1.76 RPM ratio (pull-down/input) |
| GATGATTGTTCTCCCAGCTGATGAATTTCCTGCCTCGAGTAAACAAATTTTCCTAATCTTTCTGTTCAAGCGCCATCTAC | 0.873 RPM ratio (pull-down/input) |
| GATGATTGTTCTCCCAGCTGATGAATTGGTACAATCGAGTAAACAAATTTTCCTAATCTTTCTGTTCAAGCGCCATCTAC | 1.33 RPM ratio (pull-down/input) |
| GATGATTGTTCTCCCAGCTGATGAATTAACCAGCTCGAGTAAACAAATTTTCCTAATCTTTCTGTTCAAGCGCCATCTAC | 0.867 RPM ratio (pull-down/input) |
| GATGATTGTTCTCCCAGCTGATGAATTCGCGGAATCGAGTAAACAAATTTTCCTAATCTTTCTGTTCAAGCGCCATCTAC | 0.94 RPM ratio (pull-down/input) |
| GATGATTGTTCTCCCAGCTGATGAATTAGTGGCCTCGAGTAAACAAATTTTCCTAATCTTTCTGTTCAAGCGCCATCTAC | 0.931 RPM ratio (pull-down/input) |
| GATGATTGTTCTCCCAGCTGATGAATTGATCTTCTCGAGTAAACAAATTTTCCTAATCTTTCTGTTCAAGCGCCATCTAC | 0.956 RPM ratio (pull-down/input) |
| GATGATTGTTCTCCCAGCTGATGAATTAGTCTCGTCGAGTAAACAAATTTTCCTAATCTTTCTGTTCAAGCGCCATCTAC | 0.886 RPM ratio (pull-down/input) |
| GATGATTGTTCTCCCAGCTGATGAATTCCGTTTCTCGAGTAAACAAATTTTCCTAATCTTTCTGTTCAAGCGCCATCTAC | 0.886 RPM ratio (pull-down/input) |

| Sequence | binding signal |
| --- | --- |
| GATGATTGTTCTCCCAGCTGATGAATTTTGATGTTCGAGTAAACAAATTTTCCTAATCTTTCTGTTCAAGCGCCATCTAC | 1.46 RPM ratio (pull-down/input) |
| GATGATTGTTCTCCCAGCTGATGAATTTCTCTCCTCGAGTAAACAAATTTTCCTAATCTTTCTGTTCAAGCGCCATCTAC | 0.871 RPM ratio (pull-down/input) |
| GATGATTGTTCTCCCAGCTGATGAATTCCGATCGTCGAGTAAACAAATTTTCCTAATCTTTCTGTTCAAGCGCCATCTAC | 0.748 RPM ratio (pull-down/input) |
| GATGATTGTTCTCCCAGCTGATGAATTTACACTATCGAGTAAACAAATTTTCCTAATCTTTCTGTTCAAGCGCCATCTAC | 1.42 RPM ratio (pull-down/input) |
| GATGATTGTTCTCCCAGCTGATGAATTACCGGGATCGAGTAAACAAATTTTCCTAATCTTTCTGTTCAAGCGCCATCTAC | 0.847 RPM ratio (pull-down/input) |
| GATGATTGTTCTCCCAGCTGATGAATTATAGCTATCGAGTAAACAAATTTTCCTAATCTTTCTGTTCAAGCGCCATCTAC | 1.09 RPM ratio (pull-down/input) |
| GATGATTGTTCTCCCAGCTGATGAATTGCTCGGTTCGAGTAAACAAATTTTCCTAATCTTTCTGTTCAAGCGCCATCTAC | 0.946 RPM ratio (pull-down/input) |
| GATGATTGTTCTCCCAGCTGATGAATTCGCAAGATCGAGTAAACAAATTTTCCTAATCTTTCTGTTCAAGCGCCATCTAC | 0.899 RPM ratio (pull-down/input) |
| GATGATTGTTCTCCCAGCTGATGAATTCGTACGATCGAGTAAACAAATTTTCCTAATCTTTCTGTTCAAGCGCCATCTAC | 0.974 RPM ratio (pull-down/input) |
| GATGATTGTTCTCCCAGCTGATGAATTCACCCTGTCGAGTAAACAAATTTTCCTAATCTTTCTGTTCAAGCGCCATCTAC | 0.817 RPM ratio (pull-down/input) |
| GATGATTGTTCTCCCAGCTGATGAATTCGCCTAATCGAGTAAACAAATTTTCCTAATCTTTCTGTTCAAGCGCCATCTAC | 0.938 RPM ratio (pull-down/input) |
| GATGATTGTTCTCCCAGCTGATGAATTGAATCTGTCGAGTAAACAAATTTTCCTAATCTTTCTGTTCAAGCGCCATCTAC | 0.897 RPM ratio (pull-down/input) |
| GATGATTGTTCTCCCAGCTGATGAATTCCCTGATTCGAGTAAACAAATTTTCCTAATCTTTCTGTTCAAGCGCCATCTAC | 0.807 RPM ratio (pull-down/input) |
| GATGATTGTTCTCCCAGCTGATGAATTCAACATCTCGAGTAAACAAATTTTCCTAATCTTTCTGTTCAAGCGCCATCTAC | 0.898 RPM ratio (pull-down/input) |
| GATGATTGTTCTCCCAGCTGATGAATTCTACCCTTCGAGTAAACAAATTTTCCTAATCTTTCTGTTCAAGCGCCATCTAC | 0.884 RPM ratio (pull-down/input) |
